Measurements from the supplement of paper PMC7826260.
This is one part of the list. Cleavage of a single-stranded DNA pool by Rep nickase domains was read by sequencing (1 h at 37 °C, 3 µM enzyme); the outer parts of the 90-letter strands are left off. The score is log2 (uncut reads / reads without enzyme); the lower, the more was cut; hits are not called. Because reads are shares of a total, they shift together; uncut strands gain when others are lost, and binding without cutting may add a little.

Key:
Assay in all cases: uncleaved DNA left, log2 of reads against the no-enzyme library (log2 ratio); higher = less cleavage (more negative = more Rep cleavage of the k-mer); sequences stand for … in CTCGTCCG…ACCGGAGA
[1] = system: T1, Rep nickase domain of Muscovy duck circovirus
T1 sequence (residues 1-111 of Rep, tag left off): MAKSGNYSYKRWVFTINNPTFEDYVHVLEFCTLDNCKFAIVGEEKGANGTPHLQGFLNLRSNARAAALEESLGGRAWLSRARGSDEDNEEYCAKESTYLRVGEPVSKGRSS
Procedure: (§1)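 A pool of 90-nt single-stranded DNAs with seven random bases just before the constant AC of the nick site (name = the seven bases) was cut by 3 µM recombinant His6-SUMO-tagged Rep nickase domain (300 nM DNA, 50 mM HEPES pH 8.0, 50 mM NaCl, 1 mM MnCl2, 1 h, 37 °C, three replicates). Uncut DNA was amplified and sequenced.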

[2] = system: T2, Rep nickase domain of banana bunchy top virus
T2 sequence (residues 1-94 of Rep, tag left off): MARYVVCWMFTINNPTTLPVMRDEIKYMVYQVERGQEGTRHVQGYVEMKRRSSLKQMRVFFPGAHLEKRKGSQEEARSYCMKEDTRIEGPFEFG
Procedure: as §1

[3] = system: T3, Rep nickase domain of cabbage leaf curl virus
T3 sequence (residues 1-116 of Rep, tag left off): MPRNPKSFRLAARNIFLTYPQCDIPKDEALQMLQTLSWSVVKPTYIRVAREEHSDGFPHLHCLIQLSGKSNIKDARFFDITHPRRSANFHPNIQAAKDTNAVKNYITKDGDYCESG
Procedure: as §1

[4] = system: T4, Rep nickase domain of chickpea chlorotic dwarf virus
T4 sequence (residues 1-124 of Rep, tag left off): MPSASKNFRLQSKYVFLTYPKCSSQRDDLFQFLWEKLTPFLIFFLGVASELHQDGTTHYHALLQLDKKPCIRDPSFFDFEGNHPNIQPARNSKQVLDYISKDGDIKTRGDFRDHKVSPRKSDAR
Procedure: as §1

[5] = system: T5, Rep nickase domain of faba bean necrotic yellows virus
T5 sequence (residues 1-98 of Rep, tag left off): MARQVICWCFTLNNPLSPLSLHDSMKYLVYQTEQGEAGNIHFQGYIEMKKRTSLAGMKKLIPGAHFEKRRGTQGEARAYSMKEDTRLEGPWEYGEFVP
Procedure: as §1

[6] = system: T6, Rep nickase domain of maize striate mosaic virus
T6 sequence (residues 1-117 of Rep, tag left off): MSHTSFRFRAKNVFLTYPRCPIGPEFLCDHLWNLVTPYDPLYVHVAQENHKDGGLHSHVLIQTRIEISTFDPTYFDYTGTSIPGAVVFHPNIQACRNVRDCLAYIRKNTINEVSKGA
Procedure: as §1

[7] = system: T7, Rep nickase domain of porcine circovirus 2
T7 sequence (residues 2-116 of Rep, tag left off): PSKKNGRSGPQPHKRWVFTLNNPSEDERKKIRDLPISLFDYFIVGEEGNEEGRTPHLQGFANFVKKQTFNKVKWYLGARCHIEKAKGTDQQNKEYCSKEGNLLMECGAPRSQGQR
Procedure: as §1

[8] = system: T8, Rep nickase domain of tomato golden mosaic virus
T8 sequence (residues 1-124 of Rep, tag left off): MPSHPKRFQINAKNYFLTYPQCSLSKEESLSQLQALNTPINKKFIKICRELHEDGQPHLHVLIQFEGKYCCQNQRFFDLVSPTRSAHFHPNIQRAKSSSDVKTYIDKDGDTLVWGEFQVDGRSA
Procedure: as §1

[9] = system: T9, Rep nickase domain of tomato yellow leaf curl virus
T9 sequence (residues 1-136 of Rep, tag left off): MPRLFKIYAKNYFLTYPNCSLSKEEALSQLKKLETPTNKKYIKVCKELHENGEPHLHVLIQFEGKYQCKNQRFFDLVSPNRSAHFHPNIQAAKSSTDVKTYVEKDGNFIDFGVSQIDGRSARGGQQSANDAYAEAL
Procedure: as §1

[10] = system: T10, Rep nickase domain of wheat dwarf virus
T10 sequence (residues 1-137 of Rep, tag left off): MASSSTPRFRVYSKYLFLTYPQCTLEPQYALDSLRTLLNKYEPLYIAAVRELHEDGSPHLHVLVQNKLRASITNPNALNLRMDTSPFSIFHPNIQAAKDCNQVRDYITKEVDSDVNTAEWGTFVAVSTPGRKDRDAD
Procedure: as §1

Sequence	uncleaved DNA left (log2) [1]	uncleaved DNA left (log2) [2]	uncleaved DNA left (log2) [3]	uncleaved DNA left (log2) [4]	uncleaved DNA left (log2) [5]	uncleaved DNA left (log2) [6]	uncleaved DNA left (log2) [7]	uncleaved DNA left (log2) [8]	uncleaved DNA left (log2) [9]	uncleaved DNA left (log2) [10]
CGGTAAT	-0.626	-0.113	0.317	0.233	-0.235	0.969	-2.58	-0.0566	-0.015	0.0677
ACGAACA	-0.0763	0.00634	-0.3	-1.63	0.0736	-0.698	-0.106	0.02	-0.18	-0.0441
CAGGATG	0.345	0.219	0.261	0.877	0.336	0.35	0.322	0.375	0.155	0.293
CTCCCCG	-0.0607	-0.0391	-0.868	0.0128	0.0256	-0.692	-0.0244	-0.0668	-0.0783	-0.103
GCTTGTG	-0.0426	-0.174	-0.752	-0.065	0.00168	-0.845	0.0628	-0.18	-0.0591	-0.259
TGCTGTC	-0.0757	-0.114	-0.0119	0.241	-0.137	0.341	0.11	-0.133	-0.0854	-0.144
GTCGCTA	-0.077	0.0253	0.325	0.683	-0.0164	1.39	-0.0133	0.00346	-0.0257	-0.00163
AGGGAGG	0.134	0.0632	-0.00765	0.545	0.0566	0.513	0.176	0.0231	-0.0148	0.00417
CGGTTTT	-1.23	0.000852	0.288	-0.226	-0.0717	0.826	-2.59	0.0448	0.0435	0.0773
TACGCGT	0.0489	-0.097	-0.941	-1.5	-0.00694	-1.03	0.102	-0.0464	-0.0663	-0.207
ATCTTGC	-0.0409	0.00866	-0.822	-0.145	-0.00821	-0.931	0.119	-0.144	-0.0204	-0.105
GGGGCAG	0.062	0.201	0.958	2.11	0.00129	2.31	0.236	0.111	-0.25	0.119
CACTTAT	-1.25	-2.42	-0.295	-2.33	-0.0812	-0.785	-3.64	-0.117	-0.196	-0.227
CCTCTGT	0.0546	0.0395	-0.0693	-0.428	-0.122	-0.436	-0.191	0.0172	0.0814	-0.0378
AATCACC	0.0351	-0.0147	0.0412	-0.398	0.0691	-0.167	-0.0574	0.0425	0.0526	0.0599
TGTTACT	-3.7	-0.688	-2.46	-2.8	-0.496	-0.0207	-3.88	-1.99	-0.0799	-2.28
CAATGAC	-0.0173	-0.0587	-0.47	-0.562	-0.109	-0.732	0.0318	-0.12	-0.116	-0.106
GAAGGAT	0.11	0.0798	0.272	1.62	0.0784	1.89	0.184	0.0755	-0.161	0.0196
GGGAGAT	-0.0459	0.105	0.841	2.09	-0.131	2.24	0.172	0.0767	-0.0476	0.19
CCGTGAA	0.0426	0.122	0.268	0.255	-0.0234	-0.0759	0.0666	0.0914	0.157	-0.0723

Sequence	uncleaved DNA left (log2) [1]	uncleaved DNA left (log2) [2]	uncleaved DNA left (log2) [3]	uncleaved DNA left (log2) [4]	uncleaved DNA left (log2) [5]	uncleaved DNA left (log2) [6]	uncleaved DNA left (log2) [7]	uncleaved DNA left (log2) [8]	uncleaved DNA left (log2) [9]	uncleaved DNA left (log2) [10]
GCCGCTG	0.00273	-0.0699	0.0207	0.608	-0.078	1.13	-0.0429	-0.0685	-0.234	0.015
GGACGTG	-0.0337	-0.0167	0.656	1.41	0.038	1.87	0.112	-0.0688	-0.0192	0.0369
ACTGGGA	-0.022	0.0025	-0.0204	0.261	-0.0336	-0.245	0.00301	0.0186	0.016	-0.0495
GCGTGTA	0.0661	0.0577	0.0382	0.0797	0.0473	0.312	-0.27	0.0529	-0.0319	-0.0122
GCGCGGA	0.175	0.225	0.0413	0.305	0.143	0.109	0.184	0.116	0.151	0.0788
CAGTCGT	0.0923	-0.4	-0.645	-1.02	-0.159	-0.94	-3.18	-0.082	0.0945	-0.0975
ATATAGA	0.117	0.142	-0.0796	-0.207	0.121	-0.987	0.174	0.162	0.216	0.109
CTTTCTC	-0.105	-0.00452	0.0144	-0.318	0.00131	-0.556	0.0651	-0.0181	-0.0428	0.0516
GCTTATG	-0.0438	-0.06	-0.273	-0.0355	-0.0312	-0.692	0.0267	-0.0398	-0.0502	-0.0845
ACGACAT	-0.0185	0.0319	0.523	1.55	-0.0549	1.48	0.146	0.0748	-0.0896	0.0776
TCCGGGG	-0.0117	-0.0353	0.696	1.13	-0.187	1.71	0.236	0.0446	-0.174	-0.114
GATAACC	-0.0504	0.071	-0.0472	-0.217	0.0087	0.421	-0.226	0.0183	-0.00209	0.101
TAAATCC	0.0721	-0.0241	-2.27	-2.91	0.0711	-0.808	0.0445	-0.173	0.0435	-0.929
GATCGGC	-0.0578	-0.0666	0.0977	0.367	-0.0296	-0.0892	0.0081	-0.11	-0.113	-0.0257
CCAGCGC	0.104	-0.00452	-0.654	-0.355	0.0964	-0.827	0.217	0.0263	-0.0957	-0.127
ATAGCGA	9.46e-05	-0.0341	-0.683	0.0592	0.0693	-0.748	0.212	-0.0193	0.0655	-0.123
TCGAACC	-0.0767	-0.0548	0.0444	-0.537	-0.0476	-0.542	-0.264	-0.0456	-0.01	0.00473
TGCTATG	0.181	0.0566	-0.118	-0.00451	0.0387	-0.11	0.0999	0.0199	0.000526	0.0265
CTTACGC	-0.0222	-0.0633	-0.109	-0.914	0.0479	-0.808	0.0557	-0.087	0.095	-0.0548
GCGAGCT	0.0668	0.00141	0.111	0.367	0.075	0.395	-0.0602	0.0476	0.0412	0.0142

Sequence	uncleaved DNA left (log2) [1]	uncleaved DNA left (log2) [2]	uncleaved DNA left (log2) [3]	uncleaved DNA left (log2) [4]	uncleaved DNA left (log2) [5]	uncleaved DNA left (log2) [6]	uncleaved DNA left (log2) [7]	uncleaved DNA left (log2) [8]	uncleaved DNA left (log2) [9]	uncleaved DNA left (log2) [10]
GATAATG	0.112	0.0599	-0.0584	0.0913	0.143	-0.514	0.166	0.0946	0.0278	0.0251
ACGGGCC	-0.0698	0.0878	-0.0324	0.248	-0.0101	0.165	0.199	0.0799	-0.0201	-0.0324
CTCGGGG	0.147	0.0759	0.537	0.952	-0.000708	1.2	0.233	0.0541	-0.0418	-0.027
AGCCAAT	0.04	0.0746	0.143	0.298	0.035	0.303	-0.087	0.102	0.171	0.141
GCTCACA	0.0776	0.0603	0.165	-0.254	0.098	0.39	0.0233	0.174	0.0437	0.139
ATGAAGA	0.0401	0.0151	-0.339	-0.442	0.0704	-1.12	0.0763	0.0189	-0.0263	-0.0773
ACCTTGC	-0.0233	0.0345	-0.323	0.73	-0.0166	0.127	0.191	-0.0516	0.0944	-0.0963
GTTAAGC	0.0213	0.0159	0.141	0.489	0.041	0.129	-0.00663	-0.0182	0.057	-0.0264
AAGTACC	-0.0944	-0.0656	0.00192	-0.267	-0.186	0.0633	-2.79	-0.0357	-0.137	-0.0388
TGGCTGC	0.0211	-0.013	0.172	0.729	-0.0564	0.994	0.0737	0.0436	-0.0801	0.0392
GATCCGG	0.0849	0.141	0.567	1.58	0.11	1.88	0.151	0.165	0.0341	0.0598
TTGGAAC	0.0537	0.103	0.354	0.391	0.0263	0.876	0.0664	-0.0661	-0.0359	0.0345
TGTCTTA	-0.0875	-0.203	0.119	-0.21	-0.0993	0.627	-0.181	0.0313	-0.0209	-0.0185
TCCCCGG	-0.12	-0.107	0.527	1.69	-0.0853	2.02	0.00299	0.0516	-0.11	-0.0114
TCCAAAC	-0.0344	-0.0662	0.0888	-0.351	-0.0361	-0.609	-0.101	0.0871	-0.0121	0.0735
TTCGGAG	0.142	0.142	-0.0885	-0.408	-0.0123	-0.907	0.167	0.053	0.158	0.043
AATACGT	-0.0903	-0.0549	0.187	-0.653	0.0186	-0.244	-1.78	-0.012	0.0249	0.0201
GGTTGTC	0.0233	0.0218	0.437	0.957	-0.0208	1.29	0.133	0.0769	-0.00384	-0.0247
TGCGACG	-0.105	-0.135	-0.199	0.481	-0.151	1.43	-0.107	-0.115	-0.253	-0.0428
ATGTCTT	-2.31	-1.41	-0.153	-2.35	-0.934	-0.388	-3.26	-0.0794	-0.0228	-0.0764
